For one assay, the system named is HSkMC. In words: cytotoxicity call (relative viability < 0.9). The settings on record: 10 µM.
A further assay deals with HepG2. Description: cytotoxicity call (relative viability < 0.9). As to conditions: 10 µM.
Another assay concerns S. aureus RN4220. Description: growth inhibition call (relative growth <= 0.2). The settings on record: 50 µM.

Structures are written as SMILES. Some of the results follow.

As for `C[C@@H]1CN([C@H](C)CO)C(=O)c2cc(NC(=O)Nc3ccc(C(F)(F)F)cc3)ccc2O[C@@H]1CN(C)Cc1ccc(Cl)c(Cl)c1`, the cytotoxicity call in the assay on HSkMC and in the assay with HepG2 was “active” in each case. In addition, in the assay with S. aureus RN4220, the growth inhibition call is “inactive”.
As for `C[C@H]1CCCCO[C@@H](CN(C)C(=O)C2CCCCC2)[C@@H](C)CN([C@@H](C)CO)C(=O)c2cc(NC(=O)c3ccncc3)ccc2O1`, the cytotoxicity call in the assay on HSkMC and in the assay on HepG2 was “inactive” throughout. For the same compound, in the assay with S. aureus RN4220, the growth inhibition call is “inactive”.
Consider `C[C@@H]1CN([C@@H](C)CO)C(=O)Cc2cc(NS(=O)(=O)c3ccc(Cl)cc3)ccc2O[C@@H]1CN(C)Cc1ccc(Cl)c(Cl)c1`, for which the cytotoxicity call with HSkMC and in the assay with HepG2 was “active” in each case. For the same compound, the growth inhibition call in the assay on S. aureus RN4220 was “inactive”.
With `Cc1noc(C)c1NC(=O)N(C)C[C@@H]1Oc2c(NS(=O)(=O)c3c(C)noc3C)cccc2C(=O)N([C@@H](C)CO)C[C@@H]1C`, the cytotoxicity call in the assay on HSkMC and in the assay with HepG2 was “inactive” each time. Further, the growth inhibition call in the assay with S. aureus RN4220 was “inactive”.
As to `CN(C)S(=O)(=O)Nc1cccc(N)c1`, the cytotoxicity call in the assay with HSkMC and in the assay on HepG2 was “inactive” each time. In the assay on S. aureus RN4220, the growth inhibition call is “inactive”.
Consider `C[C@H]1CN([C@@H](C)CO)C(=O)Cc2cc(NS(=O)(=O)c3cccs3)ccc2O[C@H]1CN(C)S(=O)(=O)c1ccccc1`, for which the cytotoxicity call with HSkMC and with HepG2 was “inactive” in each case. Also, in the assay on S. aureus RN4220, the growth inhibition call is “inactive”.
Turning to `C[C@@H]1CN([C@@H](C)CO)C(=O)CCCn2nncc2CO[C@H]1CN(C)S(=O)(=O)c1ccc2c(c1)OCCCO2`, the cytotoxicity call in the assay on HSkMC and in the assay with HepG2 was “inactive” in each case. Further, the growth inhibition call in the assay on S. aureus RN4220 was “inactive”.
For the compound `C[C@H](CO)N1C[C@H](C)[C@H](CN(C)C(=O)NC2CCCC2)Oc2cc(-c3cccnc3)ccc2S1(=O)=O`, the cytotoxicity call in the assay on HSkMC and in the assay on HepG2 was “inactive” each time. Moreover, in the assay with S. aureus RN4220, the growth inhibition call was “inactive”.
`COc1ccc2c3c(n(c2c1)C)[C@@H](CO)N(C[C@]13CCN(CC1)C(=O)CN(C)C)S(=O)(=O)C`: the cytotoxicity call in the assay on HSkMC and in the assay on HepG2 was “inactive” each time. Besides, in the assay with S. aureus RN4220, the growth inhibition call was “inactive”.
Consider `COc1ccc(S(=O)(=O)Nc2ccc3c(c2)C(=O)N([C@@H](C)CO)C[C@H](C)[C@H](CN(C)C(=O)Nc2ccc(C(F)(F)F)cc2)OCCCC[C@@H](C)O3)cc1`, for which the cytotoxicity call in the assay on HSkMC and in the assay with HepG2 was “inactive” throughout. Further, in the assay on S. aureus RN4220, the growth inhibition call is “inactive”.
Regarding `C=CC[C@@H](CC(=O)NCCO)C(=O)N[C@@H](COC(=O)[C@@H](CC=C)CC(=O)OC(C)(C)C)Cc1ccccc1`, the cytotoxicity call with HSkMC and with HepG2 was “inactive” each time. Also, in the assay on S. aureus RN4220, the growth inhibition call is “inactive”.
As to `COc1ccccc1CNC(=O)C[C@H]1C[C@H]2c3cc(NC(=O)Cc4ccncc4)ccc3O[C@H]2[C@H](CO)O1`, the cytotoxicity call in the assay with HSkMC and with HepG2 was “inactive” throughout. Also, the growth inhibition call with S. aureus RN4220 was “inactive”.
On to `CS(=O)(=O)c1ccccc1CC(=O)O`, for which the cytotoxicity call in the assay on HSkMC and with HepG2 was “inactive” throughout. Besides, in the assay on S. aureus RN4220, the growth inhibition call is “inactive”.
For the compound `CC(C)(N)c1nc(-c2ccc(OC(F)(F)F)cc2)c[nH]1`, the cytotoxicity call in the assay on HSkMC and in the assay with HepG2 was “inactive” each time. In the assay on S. aureus RN4220, the growth inhibition call was “inactive”.
On to `C[C@@H]1CCCCO[C@@H](CN(C)Cc2ccccc2)[C@H](C)CN([C@@H](C)CO)C(=O)c2cc(NC(=O)Nc3ccc4c(c3)OCO4)ccc2O1`, for which the cytotoxicity call with HSkMC and with HepG2 was “inactive” in each case. Further, the growth inhibition call in the assay with S. aureus RN4220 was “inactive”.
With `C[C@@H]1CN([C@H](C)CO)C(=O)c2cccc(NC(=O)C3CC3)c2O[C@H]1CN(C)S(=O)(=O)c1ccc(Cl)cc1`, the cytotoxicity call in the assay with HSkMC and with HepG2 was “inactive” each time. In addition, the growth inhibition call with S. aureus RN4220 was “inactive”.
`Cc1noc(C)c1NC(=O)N(C)C[C@@H]1OCCCC[C@@H](C)Oc2ccc(NS(=O)(=O)c3cccs3)cc2C(=O)N([C@H](C)CO)C[C@H]1C`: the cytotoxicity call in the assay with HSkMC and in the assay on HepG2 was “inactive” each time. Further, the growth inhibition call with S. aureus RN4220 was “inactive”.
`C[C@H]1CN([C@@H](C)CO)C(=O)c2cccc(NC(=O)Nc3ccc(F)cc3)c2O[C@H]1CN(C)CC1CCCCC1`: the cytotoxicity call in the assay with HSkMC and in the assay with HepG2 was “inactive” throughout. Besides, the growth inhibition call in the assay on S. aureus RN4220 was “inactive”.
In the case of `O=C(C[C@H]1CC[C@H]2[C@@H](COC[C@@H](O)CN2S(=O)(=O)c2ccccc2)O1)NCc1ccncn1`, the cytotoxicity call with HSkMC and in the assay on HepG2 was “inactive” throughout. Also, the growth inhibition call with S. aureus RN4220 was “inactive”.
Turning to `C[C@H](CO)N1C[C@H](C)[C@@H](CN(C)C(=O)c2ccccc2)OCCCC[C@H](C)Oc2ccc(NC(=O)Nc3ccccc3)cc2C1=O`, the cytotoxicity call with HSkMC and in the assay with HepG2 was “inactive” throughout. Moreover, the growth inhibition call in the assay with S. aureus RN4220 was “inactive”.
On to `COc1ccc(S(=O)(=O)N(C)C[C@H]2Oc3ccc(NS(C)(=O)=O)cc3CC(=O)N([C@H](C)CO)C[C@@H]2C)cc1`, for which the cytotoxicity call with HSkMC and with HepG2 was “inactive” throughout. Also, in the assay on S. aureus RN4220, the growth inhibition call was “inactive”.
Consider `CN1C(=O)c2cc(NC(=O)c3cccs3)ccc2OC[C@@H]2O[C@@H](CC(=O)NCC(F)(F)F)CC[C@H]21`, for which the cytotoxicity call in the assay with HSkMC and in the assay on HepG2 was “inactive” throughout. The growth inhibition call with S. aureus RN4220 was “inactive”.
`COc1ccc(NC(=O)N(C)C[C@H]2OCCCC[C@H](C)Oc3ccc(NC(=O)NC(C)C)cc3C(=O)N([C@@H](C)CO)C[C@H]2C)cc1`: the cytotoxicity call in the assay with HSkMC and in the assay on HepG2 was “inactive” each time. Further, the growth inhibition call in the assay with S. aureus RN4220 is “inactive”.
`COCCC(=O)NS(=O)(=O)c1ccccc1`: the cytotoxicity call in the assay on HSkMC and in the assay with HepG2 was “inactive” throughout. Besides, the growth inhibition call with S. aureus RN4220 was “inactive”.
In the case of `CC(=O)NCc1nnnn1-c1ccc(C)cc1`, the cytotoxicity call with HSkMC and in the assay with HepG2 was “inactive” each time. In addition, in the assay on S. aureus RN4220, the growth inhibition call was “inactive”.
Regarding `COCCOC(=O)N1C(=O)[C@@]2(c3ccccc31)[C@H](c1ccccc1OCCO)N1[C@H](c3ccccc3)[C@H](c3ccccc3)OC(=O)[C@H]1[C@@H]2C(=O)N1CCc2cc(OC)c(OC)cc2C1`, the cytotoxicity call in the assay with HSkMC and in the assay on HepG2 was “inactive” throughout. The growth inhibition call in the assay with S. aureus RN4220 was “inactive”.
In the case of `Cc1noc(C)c1NC(=O)Nc1ccc2c(c1)CC(=O)N([C@@H](C)CO)C[C@@H](C)[C@H](CN(C)Cc1ccc(C(=O)Nc3ccccc3N)cc1)O2`, the cytotoxicity call in the assay on HSkMC and with HepG2 was “inactive” throughout. For the same compound, the growth inhibition call in the assay with S. aureus RN4220 is “inactive”.
Turning to `Cc1ccc2nc(-c3ccco3)[nH]c2c1`, the cytotoxicity call with HSkMC and with HepG2 was “inactive” throughout. Besides, in the assay with S. aureus RN4220, the growth inhibition call is “inactive”.
As to `CCCNC(=O)c1cc2c(c(-c3cccc(-c4cccc(OC)c4)c3)n1)[C@@H](CCO)N([S@](=O)C(C)(C)C)C2`, the cytotoxicity call in the assay with HSkMC and in the assay with HepG2 was “inactive” each time. The growth inhibition call in the assay with S. aureus RN4220 was “inactive”.
With `COC(=O)c1cn(CC(=O)N2CCOCC2)nn1`, the cytotoxicity call in the assay with HSkMC and in the assay on HepG2 was “inactive” throughout. Moreover, the growth inhibition call with S. aureus RN4220 was “inactive”.
As to `CN1CCN(C(=O)C[C@@H]2CC[C@H]3[C@@H](COC[C@H](O)CN3S(=O)(=O)c3cccc(Cl)c3)O2)CC1`, the cytotoxicity call in the assay with HSkMC and in the assay with HepG2 was “inactive” each time. For the same compound, the growth inhibition call in the assay with S. aureus RN4220 is “inactive”.
On to `COc1ccc(CNC(=O)C[C@@H]2C[C@@H]3c4cc(NC(=O)NC5CCCC5)ccc4O[C@@H]3[C@@H](CO)O2)cc1`, for which the cytotoxicity call in the assay with HSkMC and in the assay with HepG2 was “inactive” throughout. In addition, the growth inhibition call in the assay on S. aureus RN4220 was “inactive”.
As for `Cc1ccc(S(=O)(=O)Nc2ccc3c(c2)C(=O)N([C@H](C)CO)C[C@@H](C)[C@H](CN(C)Cc2ccncc2)OCCCC[C@@H](C)O3)cc1`, the cytotoxicity call in the assay with HSkMC and with HepG2 was “inactive” throughout. The growth inhibition call with S. aureus RN4220 is “inactive”.
As for `CCCC(=O)Nc1ccc2c(c1)C(=O)N(C)C[C@H](OC)[C@H](C)CN(Cc1ccc(-c3ccccn3)cc1)[C@@H](C)CO2`, the cytotoxicity call in the assay with HSkMC and with HepG2 was “inactive” throughout. Further, the growth inhibition call with S. aureus RN4220 was “inactive”.
As to `COc1ccc(NC(=O)N(C)C[C@H]2Oc3ccc(NS(=O)(=O)c4cn(C)cn4)cc3CC(=O)N([C@@H](C)CO)C[C@@H]2C)cc1`, the cytotoxicity call in the assay with HSkMC and in the assay with HepG2 was “inactive” each time. For the same compound, the growth inhibition call with S. aureus RN4220 was “inactive”.
`Cn1c(=O)c2c(ncn2CC2OCCO2)n(C)c1=O`: the cytotoxicity call with HSkMC and in the assay on HepG2 was “inactive” throughout. Also, the growth inhibition call in the assay on S. aureus RN4220 is “inactive”.
For the compound `NC[C@H]1CC[C@H](C(=O)O)CC1`, the cytotoxicity call in the assay with HSkMC and in the assay with HepG2 was “inactive” throughout. The growth inhibition call with S. aureus RN4220 is “inactive”.
Consider `CS(=O)(=O)N1C[C@H](O)COC[C@@H]2O[C@@H](CC(=O)NCc3ccccc3)CC[C@H]21`, for which the cytotoxicity call in the assay on HSkMC (human skeletal muscle cells) and with HepG2 was “inactive” in each case. Also, the growth inhibition call with S. aureus RN4220 is “inactive”.

The values are drawn from the antibiotic and cytotoxicity screens of Wong et al. (2023).
